In patent US20100330105A1, “Anticancer Combination Therapies” (priority 2006, published 2010):

What was measured:
E7-specific CD8+ T cells = experiment: Intracellular IFN-γ staining and flow cytometry of splenocytes, E7-specific CD8+ T cells (Example 1); settings: mice bearing tumors treated with only EGCG
TC-1 tumor cells = experiment: In vivo tumor protection experiments (vaccination, then TC-1 challenge, EGCG in drinking water); design: species or system C57BL/6 mice; settings: EGCG 0.5 mg/ml for 11 days; 42 days after TC-1 tumor challenge; all of the mice

Substance: epigallocatechin-3-gallate [EGCG]
- E7-specific T cell immunity (E7-specific CD8+ T cells): only weak E7-specific T cell immunity
- tumor growth by inspection and palpation (TC-1 tumor cells): continued to demonstrate tumor growth
